Results reported in US9486506B2 (Novo Nordisk A/S, priority 2011, dated 2016).
At least one structure is not confirmed: it was looked up by name or label, or the drawing left a doubt. Numbered stars: 1 amine (or outer) side, 2 acyl side, 3 side chain; on linkers, the order of the positions; unused ones are H or OH. Side chains are listed from the residue outwards. Peptide text beside a SMILES is read from it. * marks the point of attachment. C18 diacid = O=C(O)CCCCCCCCCCCCCCCCC(=O)*; C16 diacid = O=C(O)CCCCCCCCCCCCCCC(=O)*; γGlu = O=C(O)[C@H](CCC(=O)[*:2])N[*:1]; AEEA = NCCOCCOCC(=O)O

Assay: Assay (II) ThT fibrillation assay for physical stability
Format: physicochemical
Conditions: pH 7.5

Row | SMILES | ThT assay [Lagtime] [h]
1 | CC(C)C[C@H](NC(=O)[C@H](Cc1ccc(O)cc1)NC(=O)[C@H](CCCNC(=N)N)NC(=O)[C@H](CO)NC(=O)[C@H](Cc1ccc(O)cc1)NC(=O)[C@H](CC(=O)O)NC(=O)[C@H](CO)NC(=O)[C@@H](NC(=O)[C@H](Cc1ccccc1)NC(=O)[C@@H](NC(=O)CNC(=O)[C@H](CCC(N)=O)NC(=O)[C@H](CO)NC(=O)[C@@H](N)Cc1c[nH]cn1)[C@@H](C)O)[C@@H](C)O)C(=O)N[C@@H](CC(=O)O)C(=O)N[C@@H](CCCNC(=N)N)C(=O)N[C@@H](CCCNC(=N)N)C(=O)N[C@@H](CCCNC(=N)N)C(=O)N[C@@H](C)C(=O)N[C@@H](CCC(N)=O)C(=O)N[C@@H](CC(=O)O)C(=O)N[C@@H](Cc1ccccc1)C(=O)N[C@H](C(=O)N[C@@H](CCCCNC(=O)CC[C@H](NC(=O)CC[C@H](NC(=O)COCCOCCNC(=O)COCCOCCNC(=O)CC[C@H](NC(=O)CCCCCCCCCCCCCCCCC(=O)O)C(=O)O)C(=O)O)C(=O)O)C(=O)N[C@@H](Cc1c[nH]c2ccccc12)C(=O)N[C@@H](CC(C)C)C(=O)N[C@@H](CC(C)C)C(=O)N[C@@H](CO)C(=O)N[C@H](C(=O)O)[C@@H](C)O)C(C)C [Example 20, N^ε24-[(4S)-4-carboxy-4-[[(4S)-4-carboxy-4-[[2-[2-[2-[[2-[2-[2-[[(4S)-4-carboxy-4-(17-carboxyheptadecanoylamino)butanoyl]amino]ethoxy]ethoxy]acetyl]amino]ethoxy]ethoxy]acetyl]amino]butanoyl]amino]butanoyl]-[Arg^12,Arg^16,Lys^24,Leu^27,Ser^28]-Glucagon] (H-HSQGTFTSDYSRYLDRRRAQDFVK([γGlu-γGlu-AEEA-AEEA-γGlu-C18 diacid])WLLST-OH) | 45
2 | CC(C)C[C@H](NC(=O)[C@H](Cc1c[nH]c2ccccc12)NC(=O)[C@H](CCCCNC(=O)CC[C@H](NC(=O)CC[C@H](NC(=O)COCCOCCNC(=O)COCCOCCNC(=O)CC[C@H](NC(=O)CCCCCCCCCCCCCCCCC(=O)O)C(=O)O)C(=O)O)C(=O)O)NC(=O)[C@@H](NC(=O)[C@H](Cc1ccccc1)NC(=O)[C@H](CC(=O)O)NC(=O)[C@H](CCC(N)=O)NC(=O)[C@H](C)NC(=O)[C@H](CCCNC(=N)N)NC(=O)[C@H](CCCNC(=N)N)NC(=O)[C@@H](NC(=O)[C@H](CC(=O)O)NC(=O)[C@H](CC(C)C)NC(=O)[C@H](Cc1ccc(O)cc1)NC(=O)[C@H](CCCCN)NC(=O)[C@H](CO)NC(=O)[C@H](Cc1ccc(O)cc1)NC(=O)[C@H](CC(=O)O)NC(=O)[C@H](CO)NC(=O)[C@@H](NC(=O)[C@H](Cc1ccccc1)NC(=O)[C@@H](NC(=O)CNC(=O)[C@H](CCC(N)=O)NC(=O)[C@H](CO)NC(=O)[C@@H](N)Cc1c[nH]cn1)[C@@H](C)O)[C@@H](C)O)C(C)C)C(C)C)C(=O)N[C@@H](CC(C)C)C(=O)N[C@@H](CC(N)=O)C(=O)N[C@H](C(=O)O)[C@@H](C)O [Example 7, N^ε24-[(4S)-4-carboxy-4-[[(4S)-4-carboxy-4-[[2-[2-[2-[[2-[2-[2-[[(4S)-4-carboxy-4-(17-carboxyheptadecanoylamino)butanoyl]amino]ethoxy]ethoxy]acetyl]amino]ethoxy]ethoxy]acetyl]amino]butanoyl]amino]butanoyl]-[Val^16,Lys^24,Leu^27]-Glucagon] | 29
3 | CC(C)C[C@H](NC(=O)[C@H](Cc1c[nH]c2ccccc12)NC(=O)[C@H](CCCCNC(=O)CC[C@H](NC(=O)CC[C@H](NC(=O)COCCOCCNC(=O)COCCOCCNC(=O)CC[C@H](NC(=O)CCCCCCCCCCCCCCC(=O)O)C(=O)O)C(=O)O)C(=O)O)NC(=O)[C@@H](NC(=O)[C@H](Cc1ccccc1)NC(=O)[C@H](CC(=O)O)NC(=O)[C@H](CCC(N)=O)NC(=O)[C@H](C)NC(=O)[C@H](CCCNC(=N)N)NC(=O)[C@H](CCCNC(=N)N)NC(=O)[C@@H](NC(=O)[C@H](CC(=O)O)NC(=O)[C@H](CC(C)C)NC(=O)[C@H](Cc1ccc(O)cc1)NC(=O)[C@H](CCCNC(=N)N)NC(=O)[C@H](CO)NC(=O)[C@H](Cc1ccc(O)cc1)NC(=O)[C@H](CC(=O)O)NC(=O)[C@H](CO)NC(=O)[C@@H](NC(=O)[C@H](Cc1ccccc1)NC(=O)[C@@H](NC(=O)CNC(=O)[C@H](CCC(N)=O)NC(=O)[C@H](CO)NC(=O)[C@@H](N)Cc1c[nH]cn1)[C@@H](C)O)[C@@H](C)O)C(C)C)C(C)C)C(=O)N[C@@H](CC(C)C)C(=O)N[C@@H](CO)C(=O)N[C@H](C(=O)O)[C@@H](C)O [Example 97, N^ε24-[(4S)-4-carboxy-4-[[(4S)-4-carboxy-4-[[2-[2-[2-[[2-[2-[2-[[(4S)-4-carboxy-4-(15-carboxypentadecanoylamino)butanoyl]amino]ethoxy]ethoxy]acetyl]amino]ethoxy]ethoxy]acetyl]amino]butanoyl]amino]butanoyl]-[Arg12,Val16,Lys24,Leu27,Ser28]-Glucagon] (H-HSQGTFTSDYSRYLDVRRAQDFVK([γGlu-γGlu-AEEA-AEEA-γGlu-C16 diacid])WLLST-OH; N-terminus and C-terminus assumed) | 1
4 | CC(C)C[C@H](NC(=O)[C@H](CC(=O)O)NC(=O)[C@H](CC(C)C)NC(=O)[C@H](Cc1ccc(O)cc1)NC(=O)[C@H](CCCNC(=N)N)NC(=O)[C@H](CO)NC(=O)[C@H](Cc1ccc(O)cc1)NC(=O)[C@H](CC(=O)O)NC(=O)[C@H](CO)NC(=O)[C@@H](NC(=O)[C@H](Cc1ccccc1)NC(=O)[C@@H](NC(=O)CNC(=O)[C@H](CCC(N)=O)NC(=O)[C@H](CO)NC(=O)[C@@H](N)Cc1c[nH]cn1)[C@@H](C)O)[C@@H](C)O)C(=O)N[C@@H](CCCNC(=N)N)C(=O)N[C@@H](CCCNC(=N)N)C(=O)N[C@@H](C)C(=O)N[C@@H](CCC(N)=O)C(=O)N[C@@H](CC(=O)O)C(=O)N[C@@H](Cc1ccccc1)C(=O)N[C@H](C(=O)N[C@@H](CCCCNC(=O)CC[C@H](NC(=O)CC[C@H](NC(=O)COCCOCCNC(=O)COCCOCCNC(=O)CC[C@H](NC(=O)CCCCCCCCCCCCCCCCC(=O)O)C(=O)O)C(=O)O)C(=O)O)C(=O)N[C@@H](Cc1c[nH]c2ccccc12)C(=O)N[C@@H](CC(C)C)C(=O)N[C@@H](CC(C)C)C(=O)N[C@@H](CCC(N)=O)C(=O)N[C@H](C(=O)O)[C@@H](C)O)C(C)C [Example 48, N^ε24-[(4S)-4-carboxy-4-[[(4S)-4-carboxy-4-[[2-[2-[2-[[2-[2-[2-[[(4S)-4-carboxy-4-(17-carboxyheptadecanoylamino)butanoyl]amino]ethoxy]ethoxy]acetyl]amino]ethoxy]ethoxy]acetyl]amino]butanoyl]amino]butanoyl]-[Arg12,Leu16,Lys24,Leu27,Gln28]-Glucagon] (H-HSQGTFTSDYSRYLDLRRAQDFVK([γGlu-γGlu-AEEA-AEEA-γGlu-C18 diacid])WLLQT-OH) | 8.3
5 | CC(C)C[C@H](NC(=O)[C@H](Cc1ccc(O)cc1)NC(=O)[C@H](CCCNC(=N)N)NC(=O)[C@H](CO)NC(=O)[C@H](Cc1ccc(O)cc1)NC(=O)[C@H](CC(=O)O)NC(=O)[C@H](CO)NC(=O)[C@@H](NC(=O)[C@H](Cc1ccccc1)NC(=O)[C@@H](NC(=O)CNC(=O)[C@H](CCC(N)=O)NC(=O)[C@H](CO)NC(=O)[C@@H](N)Cc1c[nH]cn1)[C@@H](C)O)[C@@H](C)O)C(=O)N[C@@H](CC(=O)O)C(=O)N[C@@H](C)C(=O)N[C@@H](CCCNC(=N)N)C(=O)N[C@@H](CCCNC(=N)N)C(=O)N[C@@H](C)C(=O)N[C@@H](CCC(N)=O)C(=O)N[C@@H](CC(=O)O)C(=O)N[C@@H](Cc1ccccc1)C(=O)N[C@H](C(=O)N[C@@H](CCCCNC(=O)CC[C@H](NC(=O)CC[C@H](NC(=O)CC[C@H](NC(=O)CC[C@H](NC(=O)CCCCCCCCCCCCCCCCC(=O)O)C(=O)O)C(=O)O)C(=O)O)C(=O)O)C(=O)N[C@@H](Cc1c[nH]c2ccccc12)C(=O)N[C@@H](CC(C)C)C(=O)N[C@@H](CC(C)C)C(=O)N[C@@H](CO)C(=O)N[C@H](C(=O)O)[C@@H](C)O)C(C)C [Example 96, N^ε24-[(4S)-4-carboxy-4-[[(4S)-4-carboxy-4-[[(4S)-4-carboxy-4-[[(4S)-4-carboxy-4-(17-carboxyheptadecanoylamino)butanoyl]amino]butanoyl]amino]butanoyl]amino]butanoyl]-[Arg12,Ala16,Lys24,Leu27,Ser28]-Glucagon] (H-HSQGTFTSDYSRYLDARRAQDFVK([γGlu-γGlu-γGlu-γGlu-C18 diacid])WLLST-OH; N-terminus and C-terminus assumed) | 45
6 | CC(C)C[C@H](NC(=O)[C@H](Cc1ccc(O)cc1)NC(=O)[C@H](CCCCN)NC(=O)[C@H](CO)NC(=O)[C@H](Cc1ccc(O)cc1)NC(=O)[C@H](CC(=O)O)NC(=O)[C@H](CO)NC(=O)[C@@H](NC(=O)[C@H](Cc1ccccc1)NC(=O)[C@@H](NC(=O)CNC(=O)[C@H](Cc1c[nH]cn1)NC(=O)[C@H](CO)NC(=O)[C@@H](N)Cc1c[nH]cn1)[C@@H](C)O)[C@@H](C)O)C(=O)N[C@@H](CC(=O)O)C(=O)N[C@@H](CCC(=O)O)C(=O)N[C@@H](CCCNC(=N)N)C(=O)N[C@@H](CCCNC(=N)N)C(=O)N[C@@H](C)C(=O)N[C@@H](CCCCN)C(=O)N[C@@H](CC(=O)O)C(=O)N[C@@H](Cc1ccccc1)C(=O)N[C@H](C(=O)N[C@@H](CCCCNC(=O)CC[C@H](NC(=O)CC[C@H](NC(=O)COCCOCCNC(=O)COCCOCCNC(=O)CC[C@H](NC(=O)CCCCCCCCCCCCCCCCC(=O)O)C(=O)O)C(=O)O)C(=O)O)C(=O)N[C@@H](Cc1c[nH]c2ccccc12)C(=O)N[C@@H](CC(C)C)C(=O)N[C@@H](CC(C)C)C(=O)N[C@@H](CO)C(=O)N[C@H](C(=O)O)[C@@H](C)O)C(C)C [Example 4, N^ε24-[(4S)-4-carboxy-4-[[(4S)-4-carboxy-4-[[2-[2-[2-[[2-[2-[2-[[(4S)-4-carboxy-4-(17-carboxyheptadecanoylamino)butanoyl]amino]ethoxy]ethoxy]acetyl]amino]ethoxy]ethoxy]acetyl]amino]butanoyl]amino]butanoyl]-[His^3,Glu^16,Lys^20,Lys^24,Leu^27,Ser^28]-Glucagon] (H-HSHGTFTSDYSKYLDERRAKDFVK([γGlu-γGlu-AEEA-AEEA-γGlu-C18 diacid])WLLST-OH) | 45
